According to the CheMixHub viscosity set:
± gives the uncertainty stated by the source. The source gives many values for each of these; only a part stands here.

Test: xn = mol fraction of the nth substance listed

Question: For `OC[C@@H](O)[C@@H](O)[C@H](O)[C@@H](O)CO` + O, which viscosity (293.15 K, 101.3 kPa, x1 = 0.00359) is on record?
Answer: Its viscosity is 1.12 ± 0.07 mPa·s.

Question: And the viscosity (293.15 K, 101.3 kPa, x1 = 0.01421)?
Answer: Its viscosity is 1.46 ± 0.09 mPa·s.

Question: And the viscosity (293.15 K, 101.3 kPa, x1 = 0.02631)?
Answer: Its viscosity is 1.95 ± 0.12 mPa·s.

Question: What about the viscosity (293.15 K, 101.3 kPa, x1 = 0.03478) of the same compound?
Answer: Its viscosity is 2.49 ± 0.15 mPa·s.

Question: And the viscosity (293.15 K, 101.3 kPa, x1 = 0.0431)?
Answer: The viscosity was 3.07 ± 0.19 mPa·s.

Question: And the viscosity (293.15 K, 101.3 kPa, x1 = 0.05127)?
Answer: Its viscosity is 3.84 ± 0.23 mPa·s.

Question: What about the viscosity (298.15 K, 101 kPa, x1 = 0.009077) of the same compound?
Answer: The viscosity was 1.258 ± 0.0098 mPa·s.

Question: What about the viscosity (298.15 K, 101 kPa, x1 = 0.01769) of the same compound?
Answer: Its viscosity is 1.612 ± 0.012 mPa·s.

Question: What about the viscosity (298.15 K, 101 kPa, x1 = 0.03395) of the same compound?
Answer: The viscosity was 2.329 ± 0.018 mPa·s.

Question: And the viscosity (298.15 K, 101 kPa, x1 = 0.05124)?
Answer: The viscosity was 3.435 ± 0.026 mPa·s.

Question: And the viscosity (298.15 K, 101 kPa, x1 = 0.06722)?
Answer: Its viscosity is 5.221 ± 0.039 mPa·s.

Question: And the viscosity (298.15 K, 101 kPa, x1 = 0.08259)?
Answer: Its viscosity is 7.896 ± 0.057 mPa·s.

Question: What about the viscosity (298.15 K, 101 kPa, x1 = 0.09747) of the same compound?
Answer: The viscosity was 11.28 ± 0.079 mPa·s.

Question: And the viscosity (303.15 K, 101.3 kPa, x1 = 0.00359)?
Answer: The viscosity was 0.89 ± 0.05 mPa·s.

Question: And the viscosity (303.15 K, 101.3 kPa, x1 = 0.007156)?
Answer: Its viscosity is 0.95 ± 0.06 mPa·s.

Question: And the viscosity (303.15 K, 101.3 kPa, x1 = 0.01769)?
Answer: Its viscosity is 1.22 ± 0.07 mPa·s.

Question: And the viscosity (303.15 K, 101.3 kPa, x1 = 0.02631)?
Answer: The viscosity was 1.48 ± 0.09 mPa·s.

Question: And the viscosity (303.15 K, 101.3 kPa, x1 = 0.03478)?
Answer: Its viscosity is 1.86 ± 0.11 mPa·s.

Question: What about the viscosity (303.15 K, 101.3 kPa, x1 = 0.0431) of the same compound?
Answer: Its viscosity is 2.25 ± 0.14 mPa·s.

Question: What about the viscosity (303.15 K, 101.3 kPa, x1 = 0.05127) of the same compound?
Answer: Its viscosity is 2.77 ± 0.17 mPa·s.

Question: And the viscosity (305.15 K, 100 kPa, x1 = 0.0001)?
Answer: Its viscosity is 0.8234 ± 0.017 mPa·s.

Question: And the viscosity (310.15 K, 100 kPa, x1 = 0.0001)?
Answer: Its viscosity is 0.7795 ± 0.016 mPa·s.

Question: And the viscosity (313.15 K, 101.3 kPa, x1 = 0.00359)?
Answer: Its viscosity is 0.72 ± 0.04 mPa·s.

Question: What about the viscosity (313.15 K, 101.3 kPa, x1 = 0.007156) of the same compound?
Answer: Its viscosity is 0.77 ± 0.05 mPa·s.

Question: What about the viscosity (313.15 K, 101.3 kPa, x1 = 0.01069) of the same compound?
Answer: The viscosity was 0.83 ± 0.05 mPa·s.

Question: And the viscosity (313.15 K, 101.3 kPa, x1 = 0.01421)?
Answer: Its viscosity is 0.9 ± 0.05 mPa·s.

Question: What about the viscosity (313.15 K, 101.3 kPa, x1 = 0.01769) of the same compound?
Answer: The viscosity was 0.98 ± 0.06 mPa·s.

Question: And the viscosity (313.15 K, 101.3 kPa, x1 = 0.02631)?
Answer: The viscosity was 1.15 ± 0.07 mPa·s.

Question: And the viscosity (313.15 K, 101.3 kPa, x1 = 0.03478)?
Answer: The viscosity was 1.4 ± 0.08 mPa·s.

Question: What about the viscosity (313.15 K, 101.3 kPa, x1 = 0.0431) of the same compound?
Answer: Its viscosity is 1.69 ± 0.1 mPa·s.

Question: And the viscosity (313.15 K, 101.3 kPa, x1 = 0.05127)?
Answer: The viscosity was 2.04 ± 0.12 mPa·s.

Question: And the viscosity (315.15 K, 100 kPa, x1 = 0.0001)?
Answer: Its viscosity is 0.7592 ± 0.016 mPa·s.

Question: And the viscosity (323.15 K, 101.3 kPa, x1 = 0.00359)?
Answer: Its viscosity is 0.6 ± 0.04 mPa·s.

Question: What about the viscosity (323.15 K, 101.3 kPa, x1 = 0.01069) of the same compound?
Answer: The viscosity was 0.69 ± 0.04 mPa·s.

Question: And the viscosity (323.15 K, 101.3 kPa, x1 = 0.01421)?
Answer: Its viscosity is 0.75 ± 0.05 mPa·s.

Question: What about the viscosity (323.15 K, 101.3 kPa, x1 = 0.01769) of the same compound?
Answer: The viscosity was 0.81 ± 0.05 mPa·s.

Question: And the viscosity (323.15 K, 101.3 kPa, x1 = 0.02631)?
Answer: The viscosity was 0.93 ± 0.06 mPa·s.

Question: And the viscosity (323.15 K, 101.3 kPa, x1 = 0.03478)?
Answer: Its viscosity is 1.15 ± 0.07 mPa·s.

Question: What about the viscosity (323.15 K, 101.3 kPa, x1 = 0.0431) of the same compound?
Answer: The viscosity was 1.32 ± 0.08 mPa·s.

Question: What about the viscosity (323.15 K, 101.3 kPa, x1 = 0.05127) of the same compound?
Answer: Its viscosity is 1.58 ± 0.1 mPa·s.
